{"source": "ChEMBL document CHEMBL4888484", "about": "“Replenishing the malaria drug discovery pipeline: Screening and hit evaluation of the MMV Hit Generation Library 1 (HGL1) against asexual blood stage Plasmodium falciparum ,using a nano luciferase reporter read-out” (2022)", "note": "Screen size: about 4,800 compounds; about 420 (8.8%) showed an effect of 50% or more. This is one part of the list."}
{"test_system": "Plasmodium falciparum", "assay": "Confirmatory screen in NF54 nanoGlo assay, in single point, at 2uM, 72h", "assay_type": "functional, Erythrocyte", "settings": "timepoint 72 hour", "units": {"% Inhibition": "%"}}
{"smiles": "CN1C2(c3ccccc3)C3C(=O)N(c4ccccc4)C(=O)C3C1(c1ccccc1)C1C(=O)N(c3ccccc3)C(=O)C12", "note": "(configuration not stated)", "% Inhibition": 2}
{"smiles": "COc1nc(C)nc2c(CN(C)C)c(C)[nH]c12", "% Inhibition": -1}
{"smiles": "Cc1noc(-c2ccc(C(C)(C)C)cc2)c1C(=O)NCCOc1ccccc1", "% Inhibition": 11}
{"smiles": "Cc1noc(C)c1S(=O)(=O)Nc1cc(-c2nnc3n2CCCCC3)c(F)cc1F", "% Inhibition": 1}
{"smiles": "COc1ccc2c(O)cc(-c3ccccc3)nc2c1", "% Inhibition": -2}
{"smiles": "O=C(NC[C@H]1CCS(=O)(=O)C1)c1ccc2[nH]c3c(c2c1)CCCC3", "% Inhibition": -6}
{"smiles": "CCOc1cc(-c2nn3c([C@H]4CCCN(C)C4)nnc3s2)cc(OCC)c1OCC", "% Inhibition": -6}
{"smiles": "CC1CC(Nc2ncnc3cc(Br)ccc23)CCN1C", "note": "(configuration not stated)", "% Inhibition": 96}
{"smiles": "O=C(NC1CCCC1)N1CCN(S(=O)(=O)c2cccc(F)c2)CC1", "% Inhibition": -10}
{"smiles": "CCN(C(=O)CCn1cnc2ccccc2c1=O)c1ccc2[nH]ccc2c1", "% Inhibition": 0}
{"smiles": "CC1CC(N)CCN1C(=O)c1cccc(-c2noc(C3CC3)n2)c1", "note": "(configuration not stated)", "% Inhibition": 2}
{"smiles": "Cc1ccccc1S(=O)(=O)N1CCN(c2c(C)n(-c3ccccc3)c(=O)n(C)c2=O)CC1", "% Inhibition": 1}
{"smiles": "COc1ccccc1CNC(=O)c1cnn2c(-c3ccc(Cl)cc3)ccnc12", "% Inhibition": -4}
{"smiles": "C1CN(c2nc3nonc3nc2N2CCOCC2)CCO1", "% Inhibition": -14}
{"smiles": "C[C@@H](Cn1cc(Br)cn1)c1nnc(Nc2ccn(Cc3c(F)cccc3Cl)n2)s1", "% Inhibition": 2}
{"smiles": "Cc1cc(C)n(Cc2csc(C3CCCCC3)n2)n1", "% Inhibition": -10}
{"smiles": "Cc1cc(C)cc([C@@H](O)CNC(=O)NCC(C)(C)c2ccncc2)c1", "% Inhibition": 1}
{"smiles": "CC(=O)N(c1ccccc1)[C@H]1C[C@@H](C)N(C(=O)C(F)(F)F)c2ccccc21", "% Inhibition": 9}
{"smiles": "O=C(Nc1ccc2c(c1)OCO2)c1c(-c2ccc(Cl)cc2)nc2n1CCS2(=O)=O", "% Inhibition": -1}
{"smiles": "Cc1cnccc1NCCNC1CCN(c2ccc(Cl)cc2)CC1", "% Inhibition": 99}
{"smiles": "COc1ccccc1N1CCN(c2nc(Nc3ccc(F)cc3)c3nc[nH]c3n2)CC1", "% Inhibition": -18}
{"smiles": "CN(C(=O)c1ccc(OCC(F)(F)F)nc1)C1(C#N)CCC1", "% Inhibition": 2}
{"smiles": "CC1=NN(c2nc(C)cc(O)n2)C(=O)C1", "% Inhibition": -15}
{"smiles": "CN1N=C(C(=O)NC2CCC3CCCCC3C2)CCC1=O", "note": "(configuration not stated)", "% Inhibition": -11}
{"smiles": "O=S(=O)(c1ccc(F)cc1)n1ccc(-c2cccc(OCc3ccc(Cl)cc3Cl)c2)n1", "% Inhibition": -4}
{"smiles": "Cc1ccc(NC(=O)CN2CCC3(CC2)NC(c2ccc(OC(F)(F)F)cc2)=NO3)c(C)c1", "% Inhibition": -5}
{"smiles": "CC1C(Cc2ccccc2)CCN1C(=O)c1cnc(C(F)(F)F)nc1", "note": "(configuration not stated)", "% Inhibition": -1}
{"smiles": "CN1CCN(S(=O)(=O)c2ccc(F)c(F)c2)C[C@H]1c1ccccc1", "% Inhibition": 5}
{"smiles": "Cc1nc(CNC(=O)Nc2ccc(Br)c(C)n2)no1", "% Inhibition": 8}
{"smiles": "COc1ccc(CNc2ncc(-c3ccc(C)c(C)c3)n2C)cc1OCc1ccccc1", "% Inhibition": -11}
{"smiles": "O=C(CNc1ccccc1N1CCCCC1)NC1CCCCCC1", "% Inhibition": -7}
{"smiles": "OC(CC1COCCN1)c1ccccc1", "note": "(configuration not stated)", "% Inhibition": 3}
{"smiles": "c1ccc(-c2cn(-c3ccccc3)c3ncnc(N4CCCC4)c23)cc1", "% Inhibition": 8}
{"smiles": "O=C(Nc1nc2ccccc2[nH]1)C1CCN(c2cc3c(nn2)CCC3)CC1", "% Inhibition": 5}
{"smiles": "Cc1ccc(-c2nn3c([C@H]4CCCN(C)C4)nnc3s2)cc1C", "% Inhibition": -6}
{"smiles": "CC(C)CCO[C@@H](C)C(=O)NC1CCN(CC(=O)NC(C)C)CC1", "% Inhibition": 8}
{"smiles": "O=C(CN1CCC2(CC1)NC(=O)N(Cc1ccc(Cl)cc1)C2=O)Nc1ccc(F)cc1F", "% Inhibition": -1}
{"smiles": "COc1ccc(S(=O)(=O)n2[nH]c(=O)c(CCO)c2C)cc1", "% Inhibition": -3}
{"smiles": "Cn1cc(-c2ccc(F)cc2)c2nc[nH]c(=O)c21", "% Inhibition": 3}
{"smiles": "Cc1ccc(S(=O)(=O)c2c(NS(=O)(=O)c3ccccc3)n(CCc3ccccc3)c3nc4ccccc4nc23)cc1", "% Inhibition": 100}
{"smiles": "COc1cc(-c2nc(-c3ccc(F)cc3)c(-c3ccc(F)cc3)[nH]2)cc2c1OCO2", "% Inhibition": 5}
{"smiles": "CN(C)/C=C/c1c(C#N)c(=O)ncn1Cc1ccccc1", "% Inhibition": 2}
{"smiles": "O=C(C[C@H]1CCN(S(=O)(=O)c2ccc(F)c(F)c2)C1)NCc1ccccc1", "% Inhibition": -13}
{"smiles": "O=C(C[C@H]1CCN(C(=O)c2ccoc2)C1)NC1CC1", "% Inhibition": -13}
{"smiles": "COc1ccc(CCNC(=O)c2cc3n(n2)CCN(Cc2cccc(F)c2)C3=O)cc1OC", "% Inhibition": 17}
{"smiles": "C#CCOc1ccc2ccccc2c1[C@@H]1NC(=O)c2cccnc2N1", "% Inhibition": 2}
{"smiles": "O=C(N[C@H](c1ccccc1)C1CCC1)N1CCOC2(CCC2)C1", "% Inhibition": 0}
{"smiles": "Cc1cc[n+]2c(-c3ccccc3)cc(-c3ccccc3)nc2c1", "% Inhibition": 62}
{"smiles": "O=C1c2ccccc2C(=O)N1Cc1cnc(N2CCCCC2)s1", "% Inhibition": -5}
{"smiles": "Cc1cccc(NC(=O)NCCn2nnc3cc(S(=O)(=O)N4CCCC4)ccc32)c1C", "% Inhibition": -1}
{"smiles": "C=CCN=C(NCc1nccn1C)NC1CCC(C)CC1", "note": "(configuration not stated)", "% Inhibition": -9}
{"smiles": "O=C(O)[C@@H]1CCCN1c1ncc(C(F)(F)F)cc1Cl", "% Inhibition": -3}
{"smiles": "O=C(Nc1c(S(=O)(=O)c2ccccc2)c2nc3ccccc3nc2n1CCc1ccccc1)c1ccc(Cl)cc1", "% Inhibition": 102}
{"smiles": "CCOc1cc(=O)c(C(=O)N2CCC(C)CC2)nn1-c1cc(OC)cc(OC)c1", "% Inhibition": -2}
{"smiles": "Cc1ccc(C)c(-c2nc(Cn3c(=O)c4c(C)cc(C)nc4n(C)c3=O)c(C)o2)c1", "% Inhibition": -2}
{"smiles": "Cc1nnc(NC(=O)C(C)(C)S(=O)(=O)C2CC2)n1C1CC1", "% Inhibition": -3}
{"smiles": "CC(C)[C@H](NC(=O)NCCc1ncnn1C)c1ccccc1Cl", "% Inhibition": 4}
{"smiles": "COc1c(Cl)cc(Cl)cc1CNC(C)C", "% Inhibition": 4}
{"smiles": "Cc1cc(CNC(=O)Nc2cnn(-c3ncccc3C#N)c2)n(C)n1", "% Inhibition": 1}
{"smiles": "Oc1nc(N2CCOC3(CCCC3)C2)ncc1F", "% Inhibition": 51}
{"smiles": "CN(Cc1ccn(C)n1)C(=O)c1cc(S(=O)(=O)N(C)C)c(Cl)cc1Cl", "% Inhibition": 2}
{"smiles": "COC(=O)[C@@H]1C[C@H](O)CCN1C(=O)OC(C)(C)C", "% Inhibition": -2}
{"smiles": "CNc1nc(NCc2ccccc2)nc2ccccc12", "% Inhibition": 78}
{"smiles": "COc1ccc(O)c([C@H]2Nc3ccccc3-n3c(-c4ccc(C)cc4)c4c(=O)n(C)c(=O)n(C)c4c32)c1", "% Inhibition": 25}
{"smiles": "Cc1ccc(S(=O)(=O)N(CC(=O)NC2CCN(C)CC2)c2cccc(Cl)c2)cc1", "% Inhibition": -7}
{"smiles": "O=C(CCc1ccc(F)cc1)Nc1nccc(-c2ccco2)n1", "% Inhibition": 1}
{"smiles": "CN(Cc1ccncc1)Cc1ccc2c(c1)CCO2", "% Inhibition": -11}
{"smiles": "Cc1ccc(-c2ccc(=O)n(CCC(=O)N3CCN(C4CCCCC4)CC3)n2)cc1", "% Inhibition": -4}
{"smiles": "O=C(Cc1cnn(-c2ccccc2)c1)Nc1ccc2[nH]c(=O)[nH]c2c1", "% Inhibition": 4}
{"smiles": "Cc1nn(C)c2c(N3CCOCC3)nc(C3CC3)nc12", "% Inhibition": -8}
{"smiles": "Cn1nccc1/C=C1\\CC2C3CCc4cc(O)ccc4C3CCC2(C)C1O", "note": "(configuration not stated)", "% Inhibition": 37}
{"smiles": "CC(=O)c1ccc(N2CCN(C(=O)c3nn[nH]c3Nc3ccc(C)c(C)c3)CC2)cc1", "% Inhibition": 2}
{"smiles": "O=C(Nc1ccccc1OC[C@H]1CCCCO1)N1CCOCC1", "% Inhibition": 9}
{"smiles": "CC1CN(S(=O)(=O)CC2CCOC2)c2ccc(F)cc2O1", "note": "(configuration not stated)", "% Inhibition": -2}
{"smiles": "O=C(NCCCN1CCCC1=O)c1cn2ccnc(-c3ccccc3)c2n1", "% Inhibition": -12}
{"smiles": "O=C1CCC[C@H](C(=O)Nc2cnn(CC(F)(F)F)c2)N1", "% Inhibition": -8}
{"smiles": "C[C@@H](NC(=O)c1ccccc1F)c1ccccc1", "% Inhibition": 6}
{"smiles": "CN(CC(C)(CO)CO)C(=O)c1coc2ccccc12", "% Inhibition": -3}
{"smiles": "Cc1cc2nc(C)c(=O)n(Cc3ccc(C(=O)NCCCN4CCCC[C@@H]4C)cc3)c2cc1C", "% Inhibition": 1}
{"smiles": "COc1ccc(N(Cc2ccc(F)cc2)S(=O)(=O)c2ccc3nncn3c2)cc1", "% Inhibition": -13}
{"smiles": "Cc1cc(Cl)ccc1S(=O)(=O)N1CCc2nnc([C@H]3CCN(C(C)C)C3)n2CC1", "% Inhibition": 1}
{"smiles": "O=C(NCc1cccnc1)c1cnn2c3c(cnc12)CCCC3", "% Inhibition": -4}
{"smiles": "Cc1cc(N)nc(Nc2ccc(Nc3ccccc3)cc2)n1", "% Inhibition": 87}
{"smiles": "CCn1c(=O)c(N2CCC[C@H](C(=O)NCCc3c[nH]c4ccccc34)C2)nc2ccccc21", "% Inhibition": -2}
{"smiles": "CCOC1CC(NC2CC(c3ccc(F)cc3)C2)C12CCC2", "note": "(configuration not stated)", "% Inhibition": 67}
{"smiles": "CCOc1ccc(CNC(=O)c2sccc2NC(=O)c2cnccn2)cc1", "% Inhibition": -13}
{"smiles": "Clc1ccc(-c2noc(C3CNC3)n2)cc1", "% Inhibition": 21}
{"smiles": "CCOCCC1(CN=C(N)N2CCCCC2)CCCC1", "% Inhibition": 0}
{"smiles": "O=c1[nH]nc(-c2ccc3c(c2)CCC3)c2ccccc12", "% Inhibition": -7}
{"smiles": "Cc1noc(C)c1CNc1cc(S(=O)(=O)N2CCCCC2)ccc1Oc1ccccc1", "% Inhibition": 1}
{"smiles": "CCCCC(C(=O)Nc1cc(C)on1)N1CCN(C)CC1C", "note": "(configuration not stated)", "% Inhibition": -7}
{"smiles": "c1ccc(-c2ccccc2NCn2nnc3ccccc32)cc1", "% Inhibition": -4}
{"smiles": "Cc1ccc(NC(=O)c2cn(CC3(O)CCN(Cc4ccccc4)CC3)nn2)c(C)c1", "% Inhibition": 1}
{"smiles": "CCOc1cc(CNc2cccc3ccccc23)cc(Br)c1OCC(=O)NC(C)(C)C", "% Inhibition": 89}
{"smiles": "O=C(NCC(F)(F)F)Nc1ccc(CO)cc1", "% Inhibition": -1}
{"smiles": "CCOc1c(CNC(C)(C)CC(C)(C)C)cccc1OC", "% Inhibition": -1}
{"smiles": "Cc1cccc(C)c1OCC(C)NC(=O)N1CCCC(CS(C)(=O)=O)C1", "note": "(configuration not stated)", "% Inhibition": -6}
{"smiles": "CC(C)(C)OC(=O)N1CC(NC(=O)C2CC2c2ccccc2C(F)(F)F)C1", "note": "(configuration not stated)", "% Inhibition": -16}
{"smiles": "Cc1cc(OCc2ccc(C(=O)Nc3ncn(Cc4c(F)cccc4Cl)n3)o2)ccc1Cl", "% Inhibition": 0}
{"smiles": "CCc1ccccc1Nc1nc(C)c(C(=O)NCc2cccnc2)s1", "% Inhibition": -22}
{"smiles": "COc1ccc(CCNC(=O)CCCC(=O)NCc2ccccc2)cc1OC", "% Inhibition": -14}
{"smiles": "Cc1nc(CCNC(=O)Cc2nn(C)c3ccccc23)c(C)o1", "% Inhibition": 1}
